In PMC12796746:
These are yes or no findings as the source states them, for the method shown. Binding seen in cells or lysates may run through a third protein. Some results given as binding are weak or reduced against the parent protein; the word gives no strength. Tags and fused reporters may be left off the sequences shown.

Columns and labels:
Assay in all cases: co-IP; MN-1 cells transiently cotransfected with TRPV4-FLAG (WT or mutant) and ARHGEF10-Myc; TRPV4 antagonist (500 nM) from 4 h after transfection; Pierce IP Lysis Buffer; tag antibody on Dynabeads Protein G, 1 h at 4 °C; immunoblot
TRPV4^R269C-FLAG (human) = TRPV4^R269C-FLAG (human) (UniProt Q9HBA0)
TRPV4^R315W-FLAG (human) = TRPV4^R315W-FLAG (human) (UniProt Q9HBA0)
[1] = molecular target: TRPV4^WT-FLAG (in MN-1 cells) (human) (UniProt Q9HBA0)

Measured: binding

B1: ARHGEF10-Myc (protein, UniProt O15013 1-1369)
chain: MRPPGFLSRAPSLNRAERGIWSCSMDQREPLPPAPAENEMKYDTNNNEEEEGEQFDFDSGDEIPEADRQAPSAPETGGAGASEAPAPTGGEDGAGAETTPVAEPTKLVLPMKVNPYSVIDITPFQEDQPPTPVPSAEEENVGLHVPCGYLVPVPCGYAVPSNLPLLLPAYSSPVIICATSLDEEAETPEVTEDRQPNSLSSEEPPTSEDQVGREDSALARWAADPANTAWMENPEEAIYDDVPRENSDSEPDEMIYDDVENGDEGGNSSLEYGWSSSEFESYEEQSDSECKNGIPRSFLRSNHKKQLSHDLTRLKEHYEKKMRDLMASTVGVVEIQQLRQKHELKMQKLVKAAKDGTKDGLERTRAAVKRGRSFIRTKSLIAQDHRSSLEEEQNLFIDVDCKHPEAILTPMPEGLSQQQVVRRYILGSVVDSEKNYVDALKRILEQYEKPLSEMEPKVLSERKLKTVFYRVKEILQCHSLFQIALASRVSEWDSVEMIGDVFVASFSKSMVLDAYSEYVNNFSTAVAVLKKTCATKPAFLEFLKQEQEASPDRTTLYSLMMKPIQRFPQFILLLQDMLKNTSKGHPDRLPLQMALTELETLAEKLNERKRDADQRCEVKQIAKAINERYLNKLLSSGSRYLIRSDDMIETVYNDRGEIVKTKERRVFMLNDVLMCATVSSRPSHDSRVMSSQRYLLKWSVPLGHVDAIEYGSSAGTGEHSRHLAVHPPESLAVVANAKPNKVYMGPGQLYQDLQNLLHDLNVIGQITQLIGNLKGNYQNLNQSVAHDWTSGLQRLILKKEDEIRAADCCRIQLQLPGKQDKSGRPTFFTAVFNTFTPAIKESWVNSLQMAKLALEEENHMGWFCVEDDGNHIKKEKHPLLVGHMPVMVAKQQEFKIECAAYNPEPYLNNESQPDSFSTAHGFLWIGSCTHQMGQIAIVSFQNSTPKVIECFNVESRILCMLYVPVEEKRREPGAPPDPETPAVRASDVPTICVGTEEGSISIYKSSQGSKKVRLQHFFTPEKSTVMSLACTSQSLYAGLVNGAVASYARAPDGSWDSEPQKVIKLGVLPVRSLLMMEDTLWAASGGQVFIISVETHAVEGQLEAHQEEGMVISHMAVSGVGIWIAFTSGSTLRLFHTETLKHLQDINIATPVHNMLPGHQRLSVTSLLVCHGLLMVGTSLGVLVALPVPRLQGIPKVTGRGMVSYHAHNSPVKFIVLATALHEKDKDKSRDSLAPGPEPQDEDQKDALPSGGAGSSLSQGDPDAAIWLGDSLGSMTQKSDLSSSSGSLSLSHGSSSLEHRSEDSTIYDLLKDPVSLRSKARRAKKAKASSALVVCGGQGHRRVHRKARQPHQEELAPTVMVWQIPLLNI
binds: TRPV4^R269C-FLAG (human) | TRPV4^R315W-FLAG (human) | [1]
